Experimental data published in US7598354 (NATIONAL RESEARCH COUNCIL OF CANADA, dated 2009).

Molecular target: T1, Cj1181c, translation elongation factor EF-Ts (Tsf) (Campylobacter jejuni NCTC 11168, UniProt Q9PNB4 1-357)
T1 sequence: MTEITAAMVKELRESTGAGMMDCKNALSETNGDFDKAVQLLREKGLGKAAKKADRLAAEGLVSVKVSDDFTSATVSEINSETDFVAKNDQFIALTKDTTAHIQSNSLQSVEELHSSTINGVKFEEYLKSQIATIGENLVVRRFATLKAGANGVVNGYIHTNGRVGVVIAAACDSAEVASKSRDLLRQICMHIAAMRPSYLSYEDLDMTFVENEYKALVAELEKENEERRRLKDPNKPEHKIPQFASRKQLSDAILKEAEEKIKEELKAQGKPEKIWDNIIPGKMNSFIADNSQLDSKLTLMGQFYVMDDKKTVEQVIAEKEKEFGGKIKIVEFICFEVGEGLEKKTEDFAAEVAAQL
Test: Western blot of 2D gel probed with SBA-alkaline phosphatase conjugate

B1: soybean agglutinin (SBA)-alkaline phosphatase conjugate (other)
chain: AETVSFSWNKFVPKQPNMILQGDAIVTSSGKLQLNKVDENGTPKPSSLGRALYSTPIHIWDKETGSVASFAASFNFTFYAPDTKRLADGLAFFLAPIDTKPQTHAGYLGLFNENESGDQVVAVEFDTFRNSWDPPNPHIGINVNSIRSIKTTSWDLANNKVAKVLITYDASTSLLVASLVYPSQRTSNILSDVVDLKTSLPEWVRIGFSAATGLDIPGESHDVLSWSFASNLPHASSNIDPLDLTSFVLHEAI
modifications: conjugated to alkaline phosphatase (EY Laboratories)
notes: Lectin; Alkaline phosphatase part not described; also called GalNAc-specific lectin; SBA lectin
  binding result: no binding (tested: 10 µg/mL)
